The values that follow come from PubChem BioAssay AID1851 (National Center for Advancing Translational Sciences (NCATS), 2009).

The entries are a selection whose mix differs from that of the whole data set. Inconclusive results are not listed. Activity calls are given as the source filed them. Calls follow the shape of the dose curve; as a rule, active = well fitted curve in the direction sought with a large enough effect; inconclusive = small, poorly fitted or top-dose-only effect, or effect the other way; inactive = no such curve, though single readings can be large or run the other way.

The target in the assay is Cytochrome P450 1A2 (Homo sapiens) (UniProt P05177). The assay is described as follows: Cytochrome panel assay with activity outcomes. As to conditions: recombinant CYP, pro-luciferin dealkylation, luminescence, p450-cyp1a2; series mostly up to 57.1 µM.
Chain of UniProt P05177 (P05177 whole entry, looked up): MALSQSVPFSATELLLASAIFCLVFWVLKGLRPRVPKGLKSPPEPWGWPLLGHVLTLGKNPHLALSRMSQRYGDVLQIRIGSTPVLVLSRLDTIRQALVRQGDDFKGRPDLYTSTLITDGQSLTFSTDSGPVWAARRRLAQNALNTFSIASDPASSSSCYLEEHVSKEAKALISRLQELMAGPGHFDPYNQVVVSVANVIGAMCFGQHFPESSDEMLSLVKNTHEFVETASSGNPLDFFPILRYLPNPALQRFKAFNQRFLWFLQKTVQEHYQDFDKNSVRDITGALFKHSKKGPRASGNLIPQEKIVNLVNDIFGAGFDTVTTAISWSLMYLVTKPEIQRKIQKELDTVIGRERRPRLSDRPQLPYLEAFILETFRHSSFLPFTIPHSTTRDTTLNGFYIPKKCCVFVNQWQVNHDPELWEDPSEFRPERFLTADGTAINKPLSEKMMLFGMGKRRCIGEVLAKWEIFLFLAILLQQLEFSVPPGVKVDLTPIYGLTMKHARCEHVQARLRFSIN
Take `Clc1ccc(CS[C@@H](Cn2ccnc2)c2ccc(Cl)cc2Cl)cc1`: the AC50 is active: 200 nM. As for `CN1[C@@H]2CC[C@H]1CC(OC(=O)[C@@H](O)c1ccccc1)C2` (some centres not stated), the AC50 entry is “inactive”.
